# Test results as given in PubChem BioAssay (NCATS).
# The other results are listed elsewhere or left out. The main result of the screen is listed elsewhere. These columns were measured beside it and carry no call. The list favours compounds with an active or inconclusive main result. The note in brackets gives the kind of curve behind each potency; many fits are weak.
# Assay: qHTS Assay for Lipid Storage Modulators (AID 1519)
# Conditions: Drosophila S3 cells, BODIPY lipid droplet/cell ratio, laser cytometry, cells loaded with oleic acid
# Method in brief: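 Cells seeded at 5,000 per well were treated with compounds over a concentration series and loaded with oleic acid (400 uM, as added). Lipid droplet fluorescence (488 nm excitation, 500-530 nm channel) was read by laser-scanning cytometry and normalized to 20 uM Triacsin C.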
# [1] = measured here: cell count channel max response
# [2] = measured here: cell number channel AC50
# [3] = measured here: lipid (BODIPY) channel AC50
# [4] = measured here: lipid channel max response
# Tags tell the direction and shape of the fitted curve.
structure (smiles),measurement,setting,value
CC(=O)c1c(O)c(C)c(O)c2c1OC1=CC(=O)C(C(C)=O)C(=O)[C@@]12C (some centres not stated),max response,[1],63.9%
same,AC50,[2],"31.6 µM [rising, partial curve]"
same,AC50,[3],"31.6 µM [rising, partial curve]"
same,max response,[4],88.4%
Cc1noc(C)c1C(=O)N1CCC[C@@]2(CCN(Cc3ccc(C#N)cc3)C2)C1,max response,[1],35.6%
same,AC50,[2],"22.4 µM [rising, partial curve, poor fit]"
same,AC50,[3],"2.24 µM [rising, partial curve, poor fit]"
same,max response,[4],46.4%
Cc1ccc(S(=O)(=O)NCc2ccccc2)cc1,max response,[1],84.1%
same,AC50,[2],"14.1 µM [rising, partial curve]"
same,AC50,[3],"15.8 µM [rising, partial curve]"
same,max response,[4],114%
O=C(/C=C/c1ccc(O)cc1)c1c(O)cc(O)cc1O,max response,[1],77.1%
same,AC50,[2],"31.6 µM [rising, partial curve, poor fit]"
same,AC50,[3],"31.6 µM [rising, partial curve, poor fit]"
same,max response,[4],102%
CN(C)C(=O)c1ccc(-c2nccc(N(C)Cc3ccco3)n2)cc1,max response,[1],43.9%
same,AC50,[2],"14.1 µM [rising, partial curve, poor fit]"
same,AC50,[3],"15.8 µM [rising, partial curve, poor fit]"
same,max response,[4],48.6%
COc1ccccc1-c1cncnc1Nc1ccccc1,max response,[1],40.1%
same,AC50,[2],"2.51 µM [rising, full curve, poor fit]"
same,AC50,[3],"5.01 µM [rising, partial curve, poor fit]"
same,max response,[4],46.3%
COc1ccc(NC(=O)N2CCC3(CC2)CCN(C(=O)c2cccn2C)CC3)cc1,max response,[1],24.8%
same,AC50,[2],"0.224 µM [rising, full curve, poor fit]"
same,AC50,[3],"0.282 µM [rising, full curve, poor fit]"
same,max response,[4],33.5%
N#CCCn1c(=O)c(-c2ccc(Cl)cc2)nc2cnc(Nc3ccccc3)nc21,max response,[1],58.1%
same,AC50,[2],"0.708 µM [rising, partial curve]"
same,AC50,[3],"0.0447 µM [rising, full curve, poor fit]"
same,max response,[4],-17.8%
COc1cccc(-c2nc(NCCNC(C)=O)c3ccccc3n2)c1,max response,[1],27.2%
same,AC50,[2],"0.891 µM [rising, full curve, poor fit]"
same,AC50,[3],"0.794 µM [rising, full curve, poor fit]"
same,max response,[4],32.8%
Cc1noc(C)c1-c1nccc(NCCN2CCOCC2)n1,max response,[1],34.2%
same,AC50,[2],"12.6 µM [rising, partial curve]"
same,AC50,[3],"11.2 µM [rising, partial curve, poor fit]"
same,max response,[4],38.9%
O=C(O)[C@H]1[C@H]2C[C@H]3c4[nH]c5ccccc5c4CCN3C[C@@H]2CC[C@@H]1O,max response,[1],60.3%
same,AC50,[2],"12.6 µM [rising, partial curve, poor fit]"
same,AC50,[3],"14.1 µM [rising, partial curve, poor fit]"
same,max response,[4],78%
COc1cccc(-c2cncnc2Nc2ccccc2)c1,max response,[1],32.3%
same,AC50,[2],"2.51 µM [rising, full curve]"
same,AC50,[3],"2.82 µM [rising, full curve]"
same,max response,[4],41.2%
COc1ccc(Oc2ncc3ncc(=O)n(C4CC4)c3n2)cc1,max response,[1],17.7%
same,AC50,[2],"2.51 µM [rising, single point]"
same,AC50,[3],"2.82 µM [rising, full curve, poor fit]"
same,max response,[4],25.8%
COc1ccc(-c2nc3cnc(N(C)C)nc3n(C[C@H]3CCCO3)c2=O)cc1,max response,[1],-17.3%
same,AC50,[2],"0.708 µM [rising, partial curve]"
same,AC50,[3],"0.794 µM [rising, partial curve]"
same,max response,[4],-20.5%
C[C@@H]1CNCCN1S(=O)(=O)c1cccc2cnccc12,max response,[1],94.3%
same,AC50,[2],"14.1 µM [rising, partial curve]"
same,AC50,[3],"14.1 µM [rising, partial curve]"
same,max response,[4],112%
CN1CCN(c2ncc3nc(-c4ccccc4)c(=O)n(Cc4cccs4)c3n2)CC1,max response,[1],36.9%
same,AC50,[2],"10 µM [rising, partial curve]"
same,AC50,[3],"10 µM [rising, partial curve]"
same,max response,[4],39.6%
N#Cc1cccc(-c2nc(NCc3ccccc3)c3ccccc3n2)c1,max response,[1],36.1%
same,AC50,[2],"2.51 µM [rising, full curve, poor fit]"
same,AC50,[3],"2.51 µM [rising, full curve, poor fit]"
same,max response,[4],47.2%
NCCOB(c1ccccc1)c1ccccc1,max response,[1],44.4%
same,AC50,[2],"1.78 µM [rising, full curve]"
same,AC50,[3],"1 µM [rising, full curve, poor fit]"
same,max response,[4],26.2%
